Sequences with one replicate were seen in a single cluster, so their values are uncertain.
These sequences were tested on ATP (assay: switch fluorescence ratio, 500 uM ATP over buffer (Cy3 cluster intensity, sum of 5 cycles each) (fold (ratio)); higher = stronger signal-on switching upon ATP binding; sequences stand for … in TCGTCGGCAGCGTCAGATGTGTATAAGAGACAGTTTTTTTTTTTTTTTTTTTTTTTTT…TC). Settings: aptamer strand: ATP DNA aptamer (quencher-CACCTGGGGGAGTATTGCGGAGGAAGG + anchor), 100 nM annealed; ATP concentration: 500 uM; one replicate.
Summary of the method: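 The quencher-labelled ATP aptamer, at 100 nM, was annealed to Cy3-labelled switching-strand clusters on a modified Illumina MiSeq flow-cell. The clusters were imaged in selection buffer, then after 15 min with 500 uM ATP at 22 °C, and this buffer/ATP cycle ran five times with NaOH stripping and re-annealing between runs. Per-cluster fluorescence ratios, summed target-cycle over summed buffer-cycle Cy3 intensity, were averaged per switch-domain sequence. Clusters outside 100-1000 RFU were excluded.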
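Further: ATP exposure 15 min at 22 °C before imaging.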

Row | Sequence | switch fluorescence ratio
1 | TTCTCGACTT | 1
2 | TTCTCGCATT | 1.51
3 | TTCTCTCCCG | 1.11
4 | TTCTCTGAGA | 0.978
5 | TTCTGAAAT | 1.11
6 | TTCTGAACCG | 1.11
7 | TTCTGACGCT | 1.49
8 | TTCTGAGTTA | 1
9 | TTCTGCAAAT | 1.37
10 | TTCTGCACTG | 1.08
11 | TTCTGGAGAG | 1.01
12 | TTCTGGCTCC | 1.78
13 | TTCTGGGTAG | 0.998
14 | TTCTGTCCCG | 1.26
15 | TTCTGTCTAC | 1.07
16 | TTCTGTCTAG | 1.01
17 | TTCTGTTGCC | 0.991
18 | TTCTTAACGG | 0.964
19 | TTCTTACTTC | 1.05
20 | TTCTTATCAT | 1.27
21 | TTCTTGAA | 1.02
22 | TTCTTGTAAA | 0.956
23 | TTCTTTCGAT | 1.03
24 | TTGAAAACCA | 1.06
25 | TTGAAAACCT | 1.07

Row | Sequence | switch fluorescence ratio
26 | TTGAAATT | 0.998
27 | TTGAACTTCA | 1.06
28 | TTGAAGATGG | 0.965
29 | TTGAAGCGA | 1.6
30 | TTGAATACAT | 1.04
31 | TTGAATGGCG | 1.08
32 | TTGACTGGCG | 1.11
33 | TTGAGAACGC | 1.05
34 | TTGAGCACCA | 1.05
35 | TTGAGCCTCA | 0.966
36 | TTGAGTCGAA | 1.01
37 | TTGATCGGT | 1.04
38 | TTGATGAT | 0.982
39 | TTGATGGACT | 1.01
40 | TTGATGTATA | 1.01
41 | TTGATTGCGC | 0.992
42 | TTGATTGCTC | 0.947
43 | TTGCAAAAGA | 0.994
44 | TTGCACAGA | 1.02
45 | TTGCACTTGG | 1.01
46 | TTGCAGGCGA | 1.01
47 | TTGCCAGGTC | 1.01
48 | TTGCCATCCG | 1.01
49 | TTGCCCGAGA | 1.01
50 | TTGCCCGTGA | 1.07

Row | Sequence | switch fluorescence ratio
51 | TTGCCTCG | 1.07
52 | TTGCCTTTCA | 1.03
53 | TTGCGACCAG | 1.03
54 | TTGCGACGG | 0.977
55 | TTGCGAGCGG | 1
56 | TTGCGGACAG | 1.03
57 | TTGCGGAGCG | 1.01
58 | TTGCGGCGAA | 0.995
59 | TTGCGGGATT | 1.06
60 | TTGCGGGCTT | 0.978
61 | TTGCGGTGTT | 1.04
62 | TTGCGTAATG | 1.47
63 | TTGCGTCAC | 1.03
64 | TTGCTATCGG | 0.975
65 | TTGCTATGAG | 1.01
66 | TTGCTATTAC | 1.91
67 | TTGCTCATGT | 0.965
68 | TTGCTCGAGA | 0.953
69 | TTGCTCTGTC | 0.993
70 | TTGCTCTTCG | 1.02
71 | TTGCTGGCGA | 0.988
72 | TTGGAAAATC | 1.02
73 | TTGGAAATCA | 0.951
74 | TTGGAACCTG | 1.11
75 | TTGGAAGAAT | 1.03

Row | Sequence | switch fluorescence ratio
76 | TTGGACACGG | 1.04
77 | TTGGACTCCC | 1.45
78 | TTGGACTCGT | 0.982
79 | TTGGAGGTA | 0.934
80 | TTGGAGTGAA | 1.03
81 | TTGGATGGCT | 1.04
82 | TTGGCAAAA | 0.968
83 | TTGGCAAGGG | 1.03
84 | TTGGCACTTT | 1.09
85 | TTGGCAGTAG | 1.08
86 | TTGGCATCCG | 0.957
87 | TTGGCCAGGT | 1.06
88 | TTGGCGCGCG | 0.979
89 | TTGGCTAGGG | 1.02
90 | TTGGGAGTAG | 1.01
91 | TTGGGATTGC | 0.98
92 | TTGGGCACAG | 0.97
93 | TTGGGCTATC | 0.966
94 | TTGGGGAG | 0.989
95 | TTGGGTACAC | 1.08
96 | TTGGGTAGTA | 1.03
97 | TTGGGTCCAG | 1.01
98 | TTGGGTCCG | 0.992
99 | TTGGTAGACC | 0.986
100 | TTGGTAGGA | 0.963
